Data reported in the supplement of paper PMC4967469.

What was measured:
Assay in all cases: Viability of human cancer cell lines after 72 h of drug (GDSC screen)
Thapsigargin = compound: C/C=C(/C)C(=O)O[C@H]1C(C)=C2[C@H]([C@@H]1OC(=O)CCCCCCC)[C@@](C)(OC(C)=O)C[C@H](OC(=O)CCC)[C@@]1(O)[C@H]2OC(=O)[C@@]1(C)O [Thapsigargin]; conditions: top dose 0.512 µM; top dose inferred
Experimental: (§1)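 Human cancer cell lines in 384-well plates, medium with 10% serum, drug for 72 h over a 256-fold dose range (nine 2-fold or five 4-fold steps up to the top dose). Adherent lines were fixed and stained with the nucleic acid dye Syto60, suspension lines read with resazurin; signal relative to control wells, capped at 0 and 100%. One two-parameter sigmoid per drug and line, fitted in a mixed model over all curves with the slope shared within a line.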

QL-X-138 = compound: C=CC(=O)Nc1cc(-n2c(=O)ccc3cnc4ccc(-c5cn[nH]c5)cc4c32)ccc1C [QL-X-138]; conditions: top dose 10.24 µM; top dose inferred
Experimental: as §1

GSK269962A = compound: CCn1c(-c2nonc2N)nc2cnc(Oc3cccc(NC(=O)c4ccc(OCCN5CCOCC5)cc4)c3)cc21 [GSK269962A]; conditions: top dose inferred
Experimental: as §1

MPS-1-IN-1 = compound: COc1cc(N2CCC(O)CC2)ccc1Nc1cc(Nc2ccccc2S(=O)(=O)C(C)C)c2cc[nH]c2n1 [MPS-1-IN-1]; conditions: top dose 20 µM; top dose inferred
Experimental: as §1

(5Z)-7-Oxozeaenol = compound: COc1cc(O)c2c(c1)/C=C/C[C@H](O)[C@H](O)C(=O)/C=C\C[C@H](C)OC2=O [(5Z)-7-Oxozeaenol]; conditions: top dose 10 µM; top dose inferred
Experimental: as §1

CP466722 = compound: COc1cc2ncnc(-n3nc(-c4ccccn4)nc3N)c2cc1OC [CP466722]; conditions: top dose 16 µM; top dose inferred
Experimental: as §1

Zibotentan = compound: COc1nc(C)cnc1NS(=O)(=O)c1cccnc1-c1ccc(-c2nnco2)cc1 [Zibotentan]; conditions: top dose 20 µM; top dose inferred
Experimental: as §1

ABT-888 = compound: C[C@]1(c2nc3c(C(N)=O)cccc3[nH]2)CCCN1 [ABT-888]; conditions: top dose 5 µM; top dose inferred
Experimental: as §1

CMK = compound: Cc1ccc(-c2c(C(=O)CCl)n(CCCO)c3ncnc(N)c23)cc1 [CMK]; conditions: top dose 4 µM; top dose inferred
Experimental: as §1

ABT-869 = compound: Cc1ccc(F)c(NC(=O)Nc2ccc(-c3cccc4[nH]nc(N)c34)cc2)c1 [ABT-869]; conditions: top dose 1.024 µM; top dose inferred
Experimental: as §1

CHIR-99021 = compound: Cc1cnc(-c2cnc(NCCNc3ccc(C#N)cn3)nc2-c2ccc(Cl)cc2Cl)[nH]1 [CHIR-99021]
Experimental: as §1

Cytarabine = compound: Nc1ccn([C@@H]2O[C@H](CO)[C@@H](O)[C@@H]2O)c(=O)n1 [Cytarabine]; conditions: top dose 2 µM
Experimental: as §1

KU-55933 = compound: O=c1cc(-c2cccc3c2Sc2ccccc2S3)oc(N2CCOCC2)c1 [KU-55933]; conditions: top dose 10 µM
Experimental: as §1

[1] = top dose 2.5 µM, screen: GDSC drug entry 127
[2] = top dose 5 µM, screen: GDSC drug entry 1192
[3] = top dose 2.56 µM, screen: GDSC drug entry 154
[4] = top dose 10 µM, screen: GDSC drug entry 1241, top dose inferred

Cell Line | AUC (Thapsigargin) | pIC50 (Thapsigargin) | AUC (QL-X-138) | pIC50 (QL-X-138) | AUC (GSK269962A; [1]) | pIC50 (GSK269962A; [1]) | AUC (GSK269962A; [2]) | pIC50 (GSK269962A; [2]) | AUC (MPS-1-IN-1) | pIC50 (MPS-1-IN-1) | AUC ((5Z)-7-Oxozeaenol) | pIC50 ((5Z)-7-Oxozeaenol) | AUC (CP466722) | pIC50 (CP466722) | AUC (Zibotentan) | pIC50 (Zibotentan) | AUC (ABT-888) | pIC50 (ABT-888) | AUC (CMK) | pIC50 (CMK) | AUC (ABT-869) | pIC50 (ABT-869) | AUC (CHIR-99021; [3]) | pIC50 (CHIR-99021; [3]) | AUC (CHIR-99021; [4]) | pIC50 (CHIR-99021; [4]) | AUC (Cytarabine) | pIC50 (Cytarabine) | AUC (KU-55933) | pIC50 (KU-55933)
ES6 (Ewing sarcoma, adherent) | 0.16 | 8.67 | 0.799 | 5.20 | 0.69 | 6.21 | 0.948 | < 5.30 | 0.745 | 5.12 | 0.677 | 5.66 | 0.624 | 5.62 | 0.98 | < 4.70 | 0.982 | < 5.30 | 0.88 | < 5.40 | 0.978 | < 5.99 | 0.946 | < 5.59 | 0.886 | < 5.00 | 0.676 | 6.36 | 0.969 | < 5.00
ES7 (Ewing sarcoma, adherent) | 0.346 | 7.93 | 0.374 | 6.55 | 0.887 | < 5.60 | 0.767 | 5.72 | 0.773 | 5.10 | 0.767 | 5.42 | 0.632 | 5.63 | 0.961 | < 4.70 | 0.983 | < 5.30 | 0.919 | < 5.40 | 0.963 | < 5.99 | 0.98 | < 5.59 | 0.937 | < 5.00 | 0.621 | 6.57 | 0.887 | < 5.00
ES-2 (ovary, adherent) | 0.555 | 7.35 | 0.882 | 5.07 | 0.977 | < 5.60 | 0.955 | < 5.30 | 0.944 | < 4.70 | 0.601 | 5.94 | 0.858 | 4.97 | 0.944 | < 4.70 | 0.985 | < 5.30 | 0.916 | < 5.40 | 0.988 | < 5.99 | 0.985 | < 5.59 | 0.988 | < 5.00 | 0.562 | 6.74 | 0.991 | < 5.00
ETK-1 (biliary tract, adherent) | 0.191 | 8.48 | 0.803 | 5.23 | 0.971 | < 5.60 | 0.861 | < 5.30 | 0.858 | < 4.70 | 0.801 | 5.25 | 0.905 | < 4.80 | 0.983 | < 4.70 | 0.961 | < 5.30 | 0.875 | < 5.40 | 0.948 | < 5.99 | 0.982 | < 5.59 | 0.913 | < 5.00 | 0.82 | 5.87 | 0.976 | < 5.00

pIC50: −log10 of the molar value. Lines with a small IC50 respond at low doses; a limit (>, <) means that the fit lies beyond the doses tested. AUC sums up the same curve from the lowest dose to the 256-fold higher top dose; values near 1 show little effect. For part of these data: The top dose, if marked as inferred, was calculated from the reported fits. For part of these data: An entry number marks a drug with two screens in the source, which often give different values.
